# From publication PMC4336329 (PLoS ONE, 2015)
# In all, about 310,000 compounds went through this assay and about 14,000 (4.5%) showed an effect of 50% or more. The effect is printed as a negative number. Some of the results follow.
# Biological target: human ether-à-go-go-related gene (hERG) potassium channel (human, UniProt Q12809)
# Test: primary screen, population patch clamp on CHO cells stably expressing hERG
# 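Also: peak tail current of the secondary pulse compared with the same well before compound.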
# Sequence of human ether-à-go-go-related gene (hERG) potassium channel (Q12809 whole entry, looked up): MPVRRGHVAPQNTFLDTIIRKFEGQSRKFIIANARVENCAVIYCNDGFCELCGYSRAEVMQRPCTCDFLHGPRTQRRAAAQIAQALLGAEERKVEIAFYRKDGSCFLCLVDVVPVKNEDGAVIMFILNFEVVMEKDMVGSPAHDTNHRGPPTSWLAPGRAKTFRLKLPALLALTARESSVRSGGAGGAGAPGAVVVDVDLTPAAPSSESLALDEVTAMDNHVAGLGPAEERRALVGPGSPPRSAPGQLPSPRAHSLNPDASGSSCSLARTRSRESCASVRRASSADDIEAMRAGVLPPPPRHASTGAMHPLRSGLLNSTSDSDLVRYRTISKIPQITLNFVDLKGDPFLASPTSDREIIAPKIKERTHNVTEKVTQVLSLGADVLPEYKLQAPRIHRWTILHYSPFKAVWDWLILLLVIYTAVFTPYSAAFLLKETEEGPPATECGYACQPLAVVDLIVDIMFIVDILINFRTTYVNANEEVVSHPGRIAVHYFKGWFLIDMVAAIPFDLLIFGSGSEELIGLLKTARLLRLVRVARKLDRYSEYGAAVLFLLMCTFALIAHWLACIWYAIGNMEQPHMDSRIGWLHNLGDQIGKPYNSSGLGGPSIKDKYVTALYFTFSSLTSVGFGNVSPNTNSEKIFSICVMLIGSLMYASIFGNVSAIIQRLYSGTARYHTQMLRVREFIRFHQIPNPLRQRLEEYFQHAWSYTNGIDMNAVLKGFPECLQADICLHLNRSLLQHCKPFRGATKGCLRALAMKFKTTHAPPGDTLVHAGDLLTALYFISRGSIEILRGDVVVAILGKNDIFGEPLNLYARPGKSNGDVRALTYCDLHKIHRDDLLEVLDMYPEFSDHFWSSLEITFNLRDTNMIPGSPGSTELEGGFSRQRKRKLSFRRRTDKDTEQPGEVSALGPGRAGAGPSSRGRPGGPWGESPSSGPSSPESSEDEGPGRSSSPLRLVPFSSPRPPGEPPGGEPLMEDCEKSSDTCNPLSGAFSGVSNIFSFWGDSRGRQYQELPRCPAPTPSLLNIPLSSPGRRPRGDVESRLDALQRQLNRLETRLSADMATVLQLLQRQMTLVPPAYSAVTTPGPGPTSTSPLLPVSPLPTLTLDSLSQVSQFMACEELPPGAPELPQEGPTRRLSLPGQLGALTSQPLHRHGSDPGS
row,SMILES,"hERG current change (%, negative = inhibition) at 10uM"
1,O=C(c1ccccc1)N1CCC(O)(c2ccc3c(c2)OCO3)CC1,-12.4%
2,Cc1ccc(-c2nc3ccccc3c(=O)n2-c2cc(C)ccn2)cc1,-5.15%
3,COc1cccc(NC(=O)CSc2nncn2-c2ccccn2)c1,-17.3%
4,COc1ccccc1CCNC(=O)CSc1ccc(-c2cccs2)nn1,-28.9%
5,C=CCn1c(=S)[nH]c2scc(-c3ccc(C)o3)c2c1=O,19.2%
6,Cc1ccc2c(c1)N(C(=O)CCC(=O)NCc1cccc(Br)c1)CC(C)O2 (stereo not drawn),-48.2%
7,O=C(C1CC(=O)N(C2CCCCC2)C1)N1CCN(c2cccc(C(F)(F)F)c2)CC1 (stereo not drawn),-29.7%
8,Cc1ccc(NCCC(=O)c2ccc(Cl)cc2)cc1,-11.5%
9,CC(=O)Nc1ccc(NC(=O)CCn2c(=O)oc3ccccc32)cc1,17.6%
10,COc1ccccc1CNC(=O)C1CCCN(S(=O)(=O)c2ccc3c(c2)C(C)(C)C(=O)N3C)C1 (stereo not drawn),-15.9%
11,O=C(Nc1cccnc1)c1ccc(Oc2ccccc2)cc1,4.9%
12,CN(C)CCn1c(N)nc2ccccc21,8.35%
13,CC1(C)Cc2ccccc2C(/C(=N\Nc2cccc(Cl)c2)C(N)=O)=N1,-2.96%
14,Cc1cc(C(=O)OCC(=O)N2CCN(C(=O)c3ccco3)CC2)c(C)n1-c1ccc(F)cc1,-66.4%
15,O=C(C1CCN(S(=O)(=O)c2ccc(Cl)c(C(F)(F)F)c2)CC1)N1CCC1,-28.7%
16,CCN(CC(=O)Nc1ccc(Cl)c(C(F)(F)F)c1)CC(=O)NC1CCS(=O)(=O)C1 (stereo not drawn),-13.2%
17,COc1ccc2nc(/C=N/NC(=O)CCCCCNC(=O)OC(C)(C)C)ccc2c1,-0.0758%
18,Cc1nn(CC#N)c(=O)n1-c1ccccc1,8.38%
19,O=C(NNS(=O)(=O)c1ccc(Cl)cc1)c1cnn(-c2ccccc2)c1-n1cccc1,1.03%
20,CCOC(=O)C1CCCN(C(=O)CCC(=O)Nc2ccc3nc(N4CCOCC4)cc(C)c3c2)C1 (stereo not drawn),-23.7%
21,COc1cc(C(=O)NNC(=O)CN2C(=O)NC(C)(c3ccc(C)cc3)C2=O)cc(OC)c1OC (stereo not drawn),0.89%
22,Cc1cc(NS(=O)(=O)c2ccc(NC(=O)CSc3nnc(-c4ccco4)n3N)cc2)nc(C)n1,11.7%

row,SMILES,"hERG current change (%, negative = inhibition) at 10uM"
1,CCCCCCn1c(O)c(C=Nc2c(C)n(C)n(-c3ccccc3)c2=O)c(=O)[nH]c1=O,-27.2%
2,O=C(CNc1ccc2ccccc2c1)N/N=C/c1ccncc1,-8.31%
3,O=C1Nc2ccccc2N(O)N1c1cc(-c2ccc(Cl)cc2)[nH]n1,22.9%
4,COc1ccc(C(=O)Oc2cc(C)[nH]c(=O)c2[N+](=O)[O-])cc1,-1.51%
5,Cc1cccc(NC(=O)C2CCN(S(=O)(=O)c3ccc(Cl)cc3)CC2)n1,-2.4%
6,CCOC(=O)COc1ccc(S(=O)(=O)N2CCN(C(=O)OCC)CC2)cc1,5.11%
7,COc1ccc(-c2csc(/C(C#N)=C/Nc3ccc4c(c3)OCCO4)n2)cc1,3.31%
8,CCN(CC(=O)Nc1c(F)cccc1F)C(=O)/C=C/c1cn(Cc2ccccc2)nc1-c1cccnc1,-31.6%
9,Cc1ccc(CNC(=O)CCNS(=O)(=O)c2ccc3c(c2)c(=O)n(C)c(=O)n3C)cc1,13.2%
10,CC(C)OC(=O)c1cc(C(=O)c2cc(F)ccc2O)coc1=N,-7.34%
11,COC(=O)c1c(NC(=O)CCCC(=O)O)sc2c1CCCCC2,12.2%
12,Cc1nc(N/N=C/c2ccccc2)nc(N(C)c2ccccc2)c1[N+](=O)[O-],11.4%
13,O=C(Nc1ccc(F)cc1)N1CCN(c2ccc(F)cc2)CC1,-67.8%
14,CCOC(=O)c1c(C)[nH]c(C(=O)OCC(=O)Nc2ccccc2)c1C,11.2%
15,CNc1cnn(-c2ccccc2)c(=O)c1Cl,7.49%
16,O=C(NCC1CCCO1)C1c2ccccc2C(=O)N1Cc1ccc2c(c1)OCO2 (stereo not drawn),-25.9%
17,Cc1csc(=NC(=O)c2ccccc2)n1C,-0.315%
18,CCOc1ccccc1CNC(=O)c1ccc(NC(=O)C2=CSCCO2)cc1,7.72%
19,Cc1ccc(C(=O)c2cc(C)sc2N)cc1,3.3%
20,CCc1cccc(C)c1NC(=S)N(CCN(C)C)C(C)c1cccnc1 (stereo not drawn),-3.46%
21,Cc1cc(NC(=O)CSc2n[nH]c(N)n2)no1,10.9%
22,COc1cc([N+](=O)[O-])cc(/C=N/NC(=O)c2cncc(Br)c2)c1O,-5.15%

row,SMILES,"hERG current change (%, negative = inhibition) at 10uM"
1,O=C(CN(c1cc(C(F)(F)F)ccc1Cl)S(=O)(=O)c1ccccc1)NCc1cccnc1,4.14%
2,COc1ccc(C[C@H]2c3cc(O)c(OC)cc3CC[N+]2(C)[O-])cc1O (stereo partly drawn),14.7%
3,CC1=CC(C)(C)N(C(=O)CSc2nnc(N)s2)c2cc(C)c(C)cc21,-6%
4,Cc1ccc(S(=O)(=O)N2CCN(C(=O)N3CCOCC3)C2C(C)C)cc1 (stereo not drawn),-7.1%
5,CCC(=O)Nc1cccc(-c2nc3ccc(C)cc3o2)c1,-13.4%
6,Cc1ccc(C)c(NC(=O)C(c2ccccc2)N2CCOCC2)c1 (stereo not drawn),-10.6%
7,Cc1cccc(NC(=O)CCSc2nc(C)cc(C)n2)c1,0.549%
8,Nc1ccc(N=Nc2ccccc2O)c(N)c1,10.9%
9,Cc1cccc(CNC(=O)C2CCC(=O)N(C3CCCCCC3)C2)c1 (stereo not drawn),-17.4%
10,Cc1ccc(NC(=O)CC2SCCNC2=O)cc1[N+](=O)[O-] (stereo not drawn),16.6%
11,Cc1cccc(NC(=O)CCc2ccccc2)c1C,20.7%
12,O=c1c2c(-c3cccc([N+](=O)[O-])c3)ccnc2[nH]n1-c1ccccc1,10%
13,CSc1cccc(NC(=S)N(Cc2ccccc2)Cc2cccnc2)c1,-11.3%
14,COCCNC(=O)c1ccc(CN2CCOCC2)cc1,4.88%
15,Cc1nc2c(ncn2-c2ccccc2)c(=O)n1NC(=O)CN1CCCC1,5.89%
16,N#CCOC(=O)[C@H](Cc1c[nH]c2ccccc12)NS(=O)(=O)c1ccc(Cl)cc1,7.37%
17,Cc1cc(C)cc(C(=O)NC(CC(N)=O)c2ccc(N3CCC(Br)CC3)c([N+](=O)[O-])c2)c1 (stereo not drawn),-16.1%
18,Cc1ccc(-c2cnn(-c3cccc([N+](=O)[O-])c3)c2N)cc1,-24.1%
19,COc1ccc(CN2C(=O)NC(C)(c3ccc(C)cc3)C2=O)cc1F (stereo not drawn),-14.2%
20,Fc1ccc(C2=CC(c3ccco3)n3nnnc3N2)cc1 (stereo not drawn),-6.76%
21,CC(=O)NC1(C(F)(F)F)NC(=O)N(c2ccc(F)cc2)C1=O (stereo not drawn),16%
22,CCc1ccc(-n2c(CSc3nnnn3-c3ccccc3)nc3ccccc3c2=O)cc1,-1.24%

row,SMILES,"hERG current change (%, negative = inhibition) at 10uM"
1,CC(=O)Nc1c(C)cc(OCC(=O)O)cc1C,-6.51%
2,O=[N+]([O-])c1ccc(CN2CCN(c3ccc(Cl)cc3)CC2)o1,-2.29%
3,CC(=O)OC1(c2ccccc2)CCN(C)C2CCCCC21.Cl (stereo not drawn),-0.508%
4,Cc1nn(CC(=O)NCc2cccs2)c(=O)c2nn(-c3ccccc3)c(C)c12,1.96%
5,CCCCOc1ccc(-c2nnc(-c3ccco3)o2)cc1,-1.67%
6,COc1ccccc1-c1nc(S(=O)(=O)c2ccccc2)c(N2CCCCC2)o1,14.4%
7,O=[N+]([O-])c1cc(S(=O)(=O)N2CCCCC2)ccc1NCCN1CCOCC1,-11.4%
8,CC1C/C(=C/c2ccncc2)C(=O)/C(=C/c2ccncc2)C1 (stereo not drawn),-41.9%
9,CC(C)[C@H](Nc1nc(-c2ccccc2)nc2c1oc1ccccc12)C(=O)O.Cl,22%
10,COc1cc2c(=O)n(CC3CCCO3)c(=O)n(CC(=O)Nc3ccc(F)cc3F)c2cc1OC (stereo not drawn),-10.3%
11,O=C(O)c1cccc(S(=O)(=O)NCCC(c2ccccc2)c2ccccc2)c1,22.1%
12,O=C(c1ccc(F)cc1)C(C(=O)N1CCCCC1)n1ccccc1=O (stereo not drawn),15.9%
13,CCC1=NN2C(=N)/C(=C\c3cccn3-c3ccc(OC)cc3)C(=O)N=C2S1,-6.71%
14,Clc1ccc(Cc2noc(Cc3ccccc3)n2)cc1Cl,0.774%
15,COc1ccc(CNC(=O)[C@H](Cc2c[nH]c3ccccc23)NC(C)=O)cc1OC,8.4%
16,O=C(CCNS(=O)(=O)c1cccs1)NCc1cccs1,24%
17,O=C(Nc1ccc(NC(=O)c2ccc([N+](=O)[O-])o2)cc1Cl)c1ccco1,9.42%
18,Cc1ccc2cccc(S(=O)(=O)N3CCCc4ccccc43)c2n1,19.4%
19,O=C(Nc1nnc(C2=COCCO2)o1)c1ccc(Cl)cc1,16.6%
20,Cc1c([N+](=O)[O-])c(C(=O)NC2CCCCC2)nn1C,-19.6%
21,O=C(NCC1CCCO1)c1cc2n(n1)C(C(F)(F)F)CC(c1ccc(Br)cc1)N2 (stereo not drawn),-3.05%
